Source: PubChem BioAssay AID1745845 (National Center for Advancing Translational Sciences (NCATS), 2022)
The campaign covered roughly 360,000 compounds. About 2,600 (0.72%) were called active. The inconclusive results got no clear call from the source; some entries with a clear call stand among them for comparison. Calls follow the shape of the dose curve; as a rule, active = well fitted inhibition curve with a large enough effect; inconclusive = small, poorly fitted or top-dose-only effect; inactive = no such curve, though single readings can be large or run the other way. Potencies of inconclusive entries are doubtful fits and often do not repeat.

assay: Primary qHTS for Inhibitors of ATXN expression; conditions: HEK-293 ATXN2-luciferase reporter, luminescence, 24 h; activity change, negative = inhibition: at 57 µM (top of the series); also: nearly all actives have a fitted effect of over 55% in size
Summary of the method: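 ATXN2-luciferase reporter cells (luciferase flanked by upstream and downstream ATXN2 gene portions) were treated 24 h at 37 °C with compounds at up to 57 uM. SteadyGlo luminescence gave expression; GF-AFC fluorescence gave viability.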
% is scaled to controls: 0 for no effect and ±100 for the full control effect; potency is read from the fitted curve at half-maximal effect; tags tell the direction and shape of the fitted curve.

| Structure (SMILES) | Potency | activity change, negative = inhibition |
| --- | --- | --- |
| CC(C)C[C@H]1CN=C(Nc2ccccc2)N1CC1CCC(C)CC1 (some centres undefined) | inconclusive: 11.2 µM [inhibitor, partial curve, poor fit] | – |
| CC(C)NC(=O)c1onc(CSc2ccc(Cl)cc2)c1C(=O)NC(C)C | – | inactive: -2.18% |
| COc1ccc2sc(-c3ccccc3OC)c(-c3ccc(OCCN(C)C)cc3)c2c1 | inconclusive: 39.8 µM [inhibitor, single point] | – |
| c1ccc(CNc2ccc3ccccc3n2)nc1 | – | inactive: 9.16% |
| O=C(/C=C/c1ccccc1)c1cc(Br)ccc(=O)c1O | active: 20 µM | – |
| CC(C)c1cc(C(C)C)c(S(=O)(=O)N2c3ccccc3[C@@]3(Br)C[C@H]4C(=O)N[C@@H](Cc5ccccc5)C(=O)N4[C@@H]23)c(C(C)C)c1 | – | inactive: 3.4% |
| COc1ccc(C(=O)C(CCC(CNC(C)(C)C)C(=O)c2ccc(OC)cc2)CNC(C)(C)C)cc1 (centres undefined) | inconclusive: 39.8 µM [inhibitor, single point] | – |
| NS(=O)(=O)c1cc2c(cc1Cl)CN(C1CCCCC1)C2=O | – | inactive: 8.3% |
| Cc1ccc(Sc2ccc(NC(=O)CCl)cc2)c(C)c1 | active: 31.6 µM | – |
| CC(=O)Nc1cccc(-c2ccnc3c2CC(C)(C(=O)Nc2cccc(Oc4ccccc4)c2)O3)c1 (centres undefined) | inconclusive: 25.1 µM [inhibitor, single point] | – |
| CCc1ccc(/C=C2\SC(=S)N(CCCC(=O)Nc3ccc(C(=O)O)cc3)C2=O)cc1 | inconclusive: 2.24 µM [inhibitor, partial curve, poor fit] | – |
| CCn1cc(C(=O)NCc2ccco2)c(=O)c2cc(S(=O)(=O)N3CC(C)CC(C)C3)ccc21 (centres undefined) | inconclusive: 8.91 µM [inhibitor, partial curve] | – |
| COc1ccccc1NCC(=O)N/N=C/c1c(O)ccc2ccccc12 | active: 2.51 µM | – |
| CCc1cc(=O)oc2cc(C)c(CN3CCCC(C)C3)c(O)c12 (centres undefined) | – | inactive: 14.9% |
| COC(=O)c1ccc(C(=O)OC)c(NC(=S)N2CCCC(C)C2)c1 (centres undefined) | – | inactive: 0.0384% |
| O=C(O)c1ccc(N/N=C/c2ccc3c(c2)OCO3)cc1 | inconclusive: 7.94 µM [inhibitor, full curve, poor fit] | – |
| C#CCN(C[C@@H]1[C@@H](OC(=O)NCCCCCC)[C@@H](OC(=O)NCCCCCC)Cn2c(=O)ccc(=O)n21)S(=O)(=O)c1ccc(C)cc1 | active: 3.55 µM | – |
| O=C(NC(c1ccc(F)cc1)c1ccc2ccccc2n1)C1CCN(CCOc2ccc(F)cc2)CC1 (centres undefined) | active: 28.2 µM | – |
| C=CC(=O)NN(C)c1ncc(C(F)(F)F)cc1Cl | inconclusive: 23.8 µM [inhibitor, single point] | – |
